According to patent publication US20250144178A1, “PHARMACEUTICAL COMPOSITION FOR CANCER TREATMENT COMPRISING FUSION PROTEIN INCLUDING IL-12 AND ANTI-FAP ANTIBODY AND ANTICANCER AGENT” (KANAPH THERAPEUTICS INC., priority 2022, published 2025):

T1: recombinant human FAP (Homo sapiens, UniProt Q12884)
T1 sequence (Q12884 1-760): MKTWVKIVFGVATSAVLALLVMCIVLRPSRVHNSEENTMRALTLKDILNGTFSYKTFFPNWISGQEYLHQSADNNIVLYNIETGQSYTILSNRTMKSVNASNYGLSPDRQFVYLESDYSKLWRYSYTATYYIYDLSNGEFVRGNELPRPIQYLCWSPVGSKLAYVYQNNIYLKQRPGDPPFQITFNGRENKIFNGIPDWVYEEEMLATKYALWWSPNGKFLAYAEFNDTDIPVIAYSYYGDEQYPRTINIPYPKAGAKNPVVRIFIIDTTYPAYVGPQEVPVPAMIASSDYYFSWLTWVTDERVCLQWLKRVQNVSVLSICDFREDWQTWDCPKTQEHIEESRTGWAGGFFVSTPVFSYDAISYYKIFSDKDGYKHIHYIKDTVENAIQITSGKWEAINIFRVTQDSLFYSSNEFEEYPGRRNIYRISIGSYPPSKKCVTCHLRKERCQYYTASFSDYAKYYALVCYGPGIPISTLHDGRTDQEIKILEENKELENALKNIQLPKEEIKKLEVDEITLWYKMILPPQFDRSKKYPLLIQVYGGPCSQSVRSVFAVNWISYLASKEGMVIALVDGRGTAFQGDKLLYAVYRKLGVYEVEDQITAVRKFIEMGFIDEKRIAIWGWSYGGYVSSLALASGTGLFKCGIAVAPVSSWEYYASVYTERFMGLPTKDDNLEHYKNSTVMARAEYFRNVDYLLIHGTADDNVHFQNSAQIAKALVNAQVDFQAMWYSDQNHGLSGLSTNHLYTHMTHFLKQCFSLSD


Columns and labels:
[1] = target: T1, recombinant human FAP; test: Surface plasmon resonance binding to recombinant human FAP; conditions: SPR, 2 μg/ml protein, FIGS. 7 and 8
Procedure: Specifically, the surface of the CM5 chip was activated with a 1:1 mixture of […] NHS (N-hydroxysuccinimide) and […] EDC (1-Ethyl-3-(3-dimethylaminopropyl) carbodiimide), and 25 μg/ml of anti-human IgG (Fc) antibody was immobilized for 400 seconds at a rate of 10 μl/min. The remaining active ester groups were blocked with 1 M ethanolamine. T1.01, T1.02 and T1.03 were diluted to 2 μg/ml and reacted on the CM5 chip immobilized with the anti-human IgG (Fc) antibody. The recombinant human FAP was diluted to 200 nM in 1×HBS-EP+buffer solution and diluted by serial dilution. The diluted recombinant human FAP was reacted at a rate of 30 μl/min. The association and dissociation times were 180 seconds and 400 seconds, respectively. After the dissociation, stabilization was performed for 60 seconds, and then a regeneration was performed for 30 seconds with a 10 mM glycine pH 1.5 solution at a rate of 30 μl/min.
Bindings of T1.04, T1.05, T1.06, T1.07, T1.08, T1.09, T1.10 and T1.11 to recombinant human […] were identified by surface plasmon resonance (SPR). The surface of the CM5 chip was activated with a 1:1 mixture of […] (N-hydroxysuccinimide) and […] (1-Ethyl-3-(3-dimethylaminopropyl) carbodiimide), and 25 μg/ml of anti-human IgG (Fc) antibody was immobilized for 400 seconds at a rate of 10 μl/min. The remaining active ester groups were blocked with 1 M ethanolamine.
Specifically, human proteins T1.04, T1.05, T1.06, T1.07, T1.08, T1.09, T1.10 and T1.11 were diluted to 1 μg/ml, 1 μg/ml, 1 μg/ml, 1 μg/ml, 0.5 μg/ml, 0.5 μg/ml, 0.5 μg/ml, and 1 μg/ml, respectively, and reacted on a CM5 chip immobilized with an anti-human IgG (Fc) antibody. The recombinant human FAP was diluted to 25 nM or 50 nM in 1×HBS-EP+buffer solution and diluted by serial dilution. The diluted recombinant human FAP was reacted at a rate of 30 μl/min. The association and dissociation times were 180 seconds and 400 seconds, respectively. After the dissociation, stabilization was performed for 60 seconds, and then a regeneration was performed for 30 seconds with a 10 mM glycine pH 1.5 solution at a rate of 30 μl/min.

[2] = test system: human NK cells; test: IFN-γ secretion in human NK cells (ELISA); type: cell-based; parameters: unit not given here; conditions: IL-2 activated human NK cells, 24 hours, FIG. 22
Procedure: (§1) For cytokine measurement, enzyme-linked immunosorbent assay (ELISA, R&D systems) was performed on the supernatant stored at −20° C. in the following steps:
(§2) (i) The capture antibody was diluted according to the Certificate of Analysis (CoA) and coated on a 96-well plate for 24 hours.
(§3) (ii) The wells were washed with a wash solution, and then blocking was performed for 1 hour with 1% BSA (Bovine serum albumin, Sigma) solution.
(§4) (iii) The wells were washed with a wash solution, and then the samples were treated for 2 hours.
(§5) (iv) The wells were washed with a wash solution, and then the detection antibody was diluted according to the Certificate of Analysis and aliquoted into the wells, and then the wells were treated therewith for 2 hours.
(§6) (v) The wells were washed with a wash solution, and then treated with streptavidin-HRP for 20 minutes.
(§7) (vi) The wells were washed with a wash solution, and then treated with a substrate solution for 20 minutes.
(§8) (vii) The wells were treated with a stop solution, and the absorbance was measured at 450 nm.
(§9) Specifically, the human NK cells activated with recombinant human IL-2 (R&D Systems) were diluted to 5×10^5 cells/ml and dispensed in a 96-well plate at 200 μl/well. Recombinant human IL-12, T1.12, T1.01, T1.02 and T1.03 were diluted to 10 nM and dispensed at 20 μl/well. After 24 hours of treatment, the cell supernatant was collected, and the samples were stored at −80° C.

[3] = test system: human T cells; test: IFN-γ secretion in human T cells (ELISA); type: cell-based; conditions: anti-CD3 activated human T cells, 48 hours, FIG. 21
Procedure: as §1, §2, §3, §4, §5, §6, §7, §8
as §9, with “T” for “NK”, “anti-CD3 (OKT3, Invitrogen)” for “recombinant human IL-2 (R&D Systems)”, “48” for “24”

[4] = target: T2, IL-12 receptor beta 1 (Homo sapiens, UniProt P42701); test: ELISA binding to recombinant human IL-12 receptor; conditions: serial dilution from 5 μg/ml, 1 nM IL-12Rβ1-Biotin, FIG. 17
T2 construct: purchased Acrobiosystems, Newark, USA
Procedure: T1.01, T1.02 and T1.03 were immobilized on a plate, and a recombinant human IL-12 receptor protein conjugated with horseradish peroxidase (HRP) was bound. Specifically, the following steps were performed:
(i) T1.01, T1.02, T1.03 and T1.12 were suspended at 5 μg/ml and diluted by serial dilution. The diluted T1.01, T1.02, T1.03 and T1.12 were aliquoted in a 96-well immune plate and treated for 24 hours.
as §3
(iii) The wells were washed with a wash solution, and then treated with 1 nM IL-12 receptor beta 1-biotin (IL-12Rβ1-Biotin; Acrobiosystems, Newark, USA) for 2 hours.
(iv) The wells were washed with a wash solution, and then treated with streptavidin-HRP for 20 minutes.
(v) The wells were washed with a wash solution, and then treated with a substrate solution for 20 minutes.
(vi) The wells were treated with a stop solution, and the absorbance was measured at 450 nm.

| Molecule | Binding to recombinant human FAP [1] | average IFN-γ in supernatant [2] | average IFN-γ in supernatant [3] | Binding to recombinant human IL-12 receptor protein [4] |
| --- | --- | --- | --- | --- |
| T1.01: K&H bispecific: anti-hu FAP/hu IL-12, hu IgG1 DANG (seq1, seq2, seq3) (antibody) heavy: QVQLVQSGAEVKKPGASVKVSCKTSRYTFTEYTIHWVRQAPGQRLEWIGGINPNNGIPNYNQKFKGRVTITVDTSASTAYMELSSLRSEDTAVYYCARRRIAYGYDEGHAMDYWGQGTLVTVSSASTKGPSVFPLAPSSKSTSGGTAALGCLVKDYFPEPVTVSWNSGALTSGVHTFPAVLQSSGLYSLSSVVTVPSSSLGTQTYICNVNHKPSNTKVDKKVEPKSCDKTHTCPPCPAPELLGGPSVFLFPPKPKDTLMISRTPEVTCVVVAVSHEDPEVKFNWYVDGVEVHNAKTKPREEQYGSTYRVVSVLTVLHQDWLNGKEYKCKVSNKALPAPIEKTISKAKGQPREPQVYTLPPSRDELTKNQVSLWCLVKGFYPSDIAVEWESNGQPENNYKTTPPVLDSDGSFFLYSKLTVDKSRWQQGNVFSCSVMHEALHNHYTQKSLSLSPGK light: DIVMTQSPDSLAVSLGERATINCKSSQSLLYSRNQKNYLAWYQQKPGQPPKLLIFWASTRESGVPDRFSGSGFGTDFTLTISSLQAEDVAVYYCQQYFSYPLTFGQGTKVEIKRTVAAPSVFIFPPSDEQLKSGTASVVCLLNNFYPREAKVQWKVDNALQSGNSQESVTEQDSKDSTYSLSSTLTLSKADYEKHKVYACEVTHQGLSSPVTKSFNRGEC IWELKKDVYVVELDWYPDAPGEMVVLTCDTPEEDGITWTLDQSSEVLGSGKTLTIQVKEFGDAGQYTCHKGGEVLSHSLLLLHKKEDGIWSTDILKDQKEPKNKTFLRCEAKNYSGRFTCWWLTTISTDLTFSVKSSRGSSDPQGVTCGAATLSAERVRGDNKEYEYSVECQEDSACPAAEESLPIEVMVDAVHKLKYENYTSSFFIRDIIKPDPPKNLQLKPLKNSRQVEVSWEYPDTWSTPHSYFSLTFCVQVQGKSKREKKDRVFTDKTSATVICRKNASISVRAQDRYYSSSWSEWASVPCSGGGGSGGGGSGGGGSRNLPVATPDPGMFPCLHHSQNLLRAVSNMLQKARQTLEFYPCTSEEIDHEDITKDKTSTVEACLPLELTKNESCLNSRETSFITNGSCLASRKTSFMMALCLSSIYEDLKMYQVEFKTMNAKLLMDPKRQIFLDQNMLAVIDELMQALNFNSETVPQKSSLEEPDFYKTKIKLCILLHAFRIRAVTIDRVMSYLNASGGGGSGGGGS[skipping human IgG1 Fc with changes] | may specifically bind to recombinant human FAP | 205 | 1,115 pg/ml | bind to the recombinant human IL-12 receptor protein in a concentration dependent manner |
| T1.02: K&H bispecific: anti-hu FAP/hu IL-12 mut1, hu IgG1 DANG (seq1, seq2, seq4) (antibody) heavy: QVQLVQSGAEVKKPGASVKVSCKTSRYTFTEYTIHWVRQAPGQRLEWIGGINPNNGIPNYNQKFKGRVTITVDTSASTAYMELSSLRSEDTAVYYCARRRIAYGYDEGHAMDYWGQGTLVTVSSASTKGPSVFPLAPSSKSTSGGTAALGCLVKDYFPEPVTVSWNSGALTSGVHTFPAVLQSSGLYSLSSVVTVPSSSLGTQTYICNVNHKPSNTKVDKKVEPKSCDKTHTCPPCPAPELLGGPSVFLFPPKPKDTLMISRTPEVTCVVVAVSHEDPEVKFNWYVDGVEVHNAKTKPREEQYGSTYRVVSVLTVLHQDWLNGKEYKCKVSNKALPAPIEKTISKAKGQPREPQVYTLPPSRDELTKNQVSLWCLVKGFYPSDIAVEWESNGQPENNYKTTPPVLDSDGSFFLYSKLTVDKSRWQQGNVFSCSVMHEALHNHYTQKSLSLSPGK light: DIVMTQSPDSLAVSLGERATINCKSSQSLLYSRNQKNYLAWYQQKPGQPPKLLIFWASTRESGVPDRFSGSGFGTDFTLTISSLQAEDVAVYYCQQYFSYPLTFGQGTKVEIKRTVAAPSVFIFPPSDEQLKSGTASVVCLLNNFYPREAKVQWKVDNALQSGNSQESVTEQDSKDSTYSLSSTLTLSKADYEKHKVYACEVTHQGLSSPVTKSFNRGEC IWELKKDVYVVELDWYPDAPGEMVVLTCDTPEEDGITWTLDQSSEVLGSGKTLTIQVKEFGDAGQYTCHKGGEVLSHSLLLLHKKEDGIWSTDILKDQKEPKNKTFLRCEAKNYSGRFTCWWLTTISTDLTFSVKSSRGSSDPQGVTCGAATLSAERVRGDNKEYEYSVECQEDSACPAAEESLPIEVMVDAVHKLKYENYTSSFFIRDIIKPDPPKNLQLKPLKNSRQVEVSWEYPDTWSTPHSYFSLTFCVQVQGASKREAKDRVFTDKTSATVICRKNASISVRAQDRYYSSSWSEWASVPCSGGGGSGGGGSGGGGSRNLPVATPDPGMFPCLHHSQNLLRAVSNMLQKARQTLEFYPCTSEEIDHEDITKDKTSTVEACLPLELTKNESCLNSRETSFITNGSCLASRKTSFMMALCLSSIYEDLKMYQVEFKTMNAKLLMDPKRQIFLDQNMLAVIDELMQALNFNSETVPQKSSLEEPDFYKTKIKLCILLHAFRIRAVTIDRVMSYLNASGGGGSGGGGS[skipping human IgG1 Fc with changes] | may specifically bind to recombinant human FAP | 133 | 845 µg/mL | bind to the recombinant human IL-12 receptor protein in a concentration dependent manner |
